Reference: the supplement of paper PMC12217912
This is one part of the list. The full chains were built here from the parent and the listed change. Inactive controls read about 0.05.

B1: TEV protease; numbered along this chain (parent)
chain: MGESLFKGPRDYNPISSSICHLTNESDGHTTSLYGIGFGPFIITNKHLFRRNNGTLVVQSLHGVFKVKDTTTLQQHLVDGRDMIIIRMPKDFPPFPQKLKFREPQREERICLVTTNFQTKSMSSMVSDTSCTFPSGDGIFWKHWIQTKDGQCGSPLVSTRDGFIVGIHSASNFTNTNNYFTSVPKNFMELLTNQEAQQWVSGWRLNADSVLWGGHKVFMVKPEEPFQPVKEATQL

Variants of: B1
Test: raw area under fraction-flipped curve 0-4 h after induction (AUC4h, not background-subtracted), DNA-recorder readout of cleavage of the substrate (dimensionless); higher = more cleavage of the substrate by the protease variant
Details: temperature: 34 °C; time window: 0-4 h after rhamnose induction
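Also: Bxb1 expression induced with 0.2% (w/v) L-rhamnose at OD600 near 0.5, cultures sampled hourly, flipped fraction per protease–substrate barcode pair counted by paired-end Illumina sequencing.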

Variant | area with substrate DNLYFQS | area with substrate HNLYFQS | area with substrate INLYFQS | area with substrate LNLYFQS | area with substrate QNLYFQS | area with substrate RNLYFQS | area with substrate SNLYFQS | area with substrate TNLYFQS | area with substrate VNLYFQS | area with substrate WNLYFQS | area with substrate YNLYFQS | area with substrate FNLYFQS | area with substrate MNLYFQS | area with substrate NNLYFQS | area with substrate PNLYFQS | area with substrate KNLYFQS | area with substrate GNLYFQS
MGESLFKGPRDYNPISSSICHLTNESDGHTTSLYGIGFGPFIITNKHLFRRNNGTLVVQSLHGVFKVKDTTTLQQHLVDGRDMIIIRMPKDFPPFPQKLKFREPQREERICLVTTNFQTKSMSSMVSDTSCTFPSGDGIFWKHWIQTKDGQCGSPLVSTRDGFIVGIHSASNFTNTNNYFTSVPKNFMELLTNQEASQWVSGWRLNADSVLWGGHKVFMVKPEEPFQPVKEATQL [Q197S] | 0.0773 | 0.0662 | 0.0548 | 0.0565 | 0.0755 | 0.0579 | 0.0741 | 0.0746 | 0.0654 | 0.0559 | 0.0593 | – | – | – | – | – | –
MGESLFKGPRDYNPISSSICHLTNESDGHTTSLYGIGFGPFIITNKHLFRRNNGTLVVQSLHGVFKVKDTTTLQQHLVDGRDMIIIRMPKDFPPFPQKLKFREPQREERICLVTTNFQTKSMSSMVSDTSCTFPSGDGIFWKHWIQTKDGQCGSPLVSTRDGFIVGIHSASNFTNTNNYFTSVPKNFMELLTNQEAPQWVSGWRLNADSVLWGGHKVFMVKPEEPFQPVKEATQL [Q197P] | 0.0809 | 0.0679 | – | 0.0719 | – | – | 0.0704 | – | – | 0.0659 | – | 0.067 | 0.0725 | 0.0661 | 0.0676 | – | –
MGESLFKGPRDYNPISSSICHLTNESDGHTTSLYGIGFGPFIITNKHLFRRNNGTLVVQSLHGVFKVKDTTTLQQHLVDGRDMIIIRMPKDFPPFPQKLKFREPQREERICLVTTNFQTKSMSSMVSDTSCTFPSGDGIFWKHWIQTKDGQCGSPLVSTRDGFIVGIHSASNFTNTNNYFTSVPKNFMELLTNVEAQQWVSGWRLNADSVLWGGHKVFMVKPEEPFQPVKEATQL [Q194V] | 0.0777 | 0.0596 | 0.0829 | 0.0574 | – | – | 0.0693 | – | 0.061 | 0.049 | – | 0.0697 | – | 0.0697 | 0.0708 | 0.0717 | –
MGESLFKGPRDYNPISSSICHLTNESDGHTTSLYGIGFGPFIITNKHLFRRNNGTLVVQSLHGVFKVKDTTTLQQHLVDGRDMIIIRMPKDFPPFPQKLKFREPQREERICLVTTNFQTKSMSSMVSDTSCTFPSGDGIFWKHWIQTKDGQCGSPLVSTRDGFIVGIHSASNFTNTNNYFTSVPKNFMELLTNKEAQQWVSGWRLNADSVLWGGHKVFMVKPEEPFQPVKEATQL [Q194K] | 0.0699 | 0.0704 | – | 0.0678 | 0.0758 | 0.0648 | 0.0734 | 0.0737 | – | 0.0611 | 0.0613 | 0.0382 | 0.0689 | 0.065 | 0.0721 | 0.0616 | –
MGESLFKGPRDYNPISSSICHLTNESDGHTTSLYGIGFGPFIITNKHLFRRNNGTLVVQSLHGVFKVKDTTTLQQHLVDGRDMIIIRMPKDFPPFPQKLKFREPQREERICLVTTNFQTKSMSSMVSDTSCTFPSGDGIFWKHWIQTKDGQCGSPLVSTRDGFIVGIHSASNFTNTNNYFTSVPKNFMELLTNMEAQQWVSGWRLNADSVLWGGHKVFMVKPEEPFQPVKEATQL [Q194M] | 0.0783 | – | 0.0707 | – | 0.0687 | – | 0.0639 | – | – | – | – | – | – | 0.0681 | 0.071 | 0.0996 | 0.0702
MGESLFKGPRDYNPISSSICHLTNESDGHTTSLYGIGFGPFIITNKHLFRRNNGTLVVQSLHGVFKVKDTTTLQQHLVDGRDMIIIRMPKDFPPFPQKLKFREPQREERICLVTTNFQTKSMSSMVSDTSCTFPSGDGIFWKHWIQTKDGQCGSPLVSTRDGFIVGIHSASNFTNTNNYFTSVPKNFMELLTWQEAQQWVSGWRLNADSVLWGGHKVFMVKPEEPFQPVKEATQL [N193W] | 0.0659 | – | – | 0.0692 | – | – | – | 0.0537 | – | 0.052 | 0.0612 | – | 0.0505 | – | 0.0605 | 0.0583 | –
MGESLFKGPRDYNPISSSICHLTNESDGHTTSLYGIGFGPFIITNKHLFRRNNGTLVVQSLHGVFKVKDTTTLQQHLVDGRDMIIIRMPKDFPPFPQKLKFREPQREERICLVTTNFQTKSMSSMVSDTSCTFPSGDGIFWKHWIQTKDGQCGSPLVSTRDGFIVGIHSASNFTNTNNYFTSVPKNFMELLTNQEAQQWVSGWALNADSVLWGGHKVFMVKPEEPFQPVKEATQL [R204A] | 0.0859 | – | 0.0807 | 0.0746 | 0.0541 | – | 0.0735 | 0.0662 | – | 0.0643 | – | 0.0636 | 0.0649 | – | 0.0734 | 0.0648 | –
MGESLFKGPRDYNPISSSICHLTNESDGHTTSLYGIGFGPFIITNKHLFRRNNGTLVVQSLHGVFKVKDTTTLQQHLVDGRDMIIIRMPKDFPPFPQKLKFREPQREERICLVTTNFQTKSMSSMVSDTSCTFPSGDGIFWKHWIQTKDGQCGSPLVSTRDGFIVGIHSASNFTNTNNYFTSVPKNFMELLTNQEAQQWVSGWRLNADSFLWGGHKVFMVKPEEPFQPVKEATQL [V210F] | 0.0556 | 0.0621 | – | 0.0614 | – | – | 0.0728 | 0.0548 | – | 0.0762 | – | 0.0633 | – | – | 0.0388 | 0.0471 | –
MGESLFKGPRDYNPISSSICHLTNESDGHTTSLYGIGFGPFIITNKHLFRRNNGTLVVQSLHGVFKVKDTTTLQQHLVDGRDMIIIRMPKDFPPFPQKLKFREPQREERICLVTTNFQTKSMSSMVSDTSCTFPSGDGIFWKHWIQTKDGQCGSPLVSTRDGFIVGIHSASNFTNTNNYFTSVPKNFMELLTNQEAQQMVSGWRLNADSVLWGGHKVFMVKPEEPFQPVKEATQL [W199M] | 0.0416 | – | 0.0551 | 0.0515 | 0.0661 | – | 0.0547 | 0.0625 | – | 0.0455 | 0.057 | – | 0.0513 | 0.0701 | 0.0487 | 0.0505 | 0.063
MGESLFKGPRDYNPISSSICHLTNESDGHTTSLYGIGFGPFIITNKHLFRRNNGTLVVQSLHGVFKVKDTTTLQQHLVDGRDMIIIRMPKDFPPFPQKLKFREPQREERICLVTTNFQTKSMSSMVSDTSCTFPSGDGIFWKHWIQTKDGQCGSPLVSTRDGFIVGIHSASNFTNTNNYFTSVPKNFMELLTNQEAQQWVSGWRLKADSVLWGGHKVFMVKPEEPFQPVKEATQL [N206K] | 0.0819 | 0.0638 | – | – | – | – | 0.0517 | – | – | 0.0435 | 0.0328 | – | – | – | – | – | –
